# Measurements from the supplement of paper PMC4967469.
# Tests used:
# Assay in all cases: Viability of human cancer cell lines after 72 h of drug (GDSC screen)
# UNC0638 = compound: COc1cc2c(NC3CCN(C(C)C)CC3)nc(C3CCCCC3)nc2cc1OCCCN1CCCC1 [UNC0638]
# Description: (§1)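 Human cancer cell lines in 384-well plates, medium with 10% serum, drug for 72 h over a 256-fold dose range (nine 2-fold or five 4-fold steps up to the top dose). Adherent lines were fixed and stained with the nucleic acid dye Syto60, suspension lines read with resazurin; signal relative to control wells, capped at 0 and 100%. One two-parameter sigmoid per drug and line, fitted in a mixed model over all curves with the slope shared within a line.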
# BX-795 = compound: O=C(NCCCNc1nc(Nc2cccc(NC(=O)N3CCCC3)c2)ncc1I)c1cccs1 [BX-795]; details: top dose 5 µM; top dose inferred
# Description: as §1
# GSK690693 = compound: CCn1c(-c2nonc2N)nc2c(C#CC(C)(C)O)ncc(OC[C@H]3CCCNC3)c21 [GSK690693]; details: top dose 10.24 µM; top dose inferred
# Description: as §1
# SB-505124 = compound: Cc1cccc(-c2[nH]c(C(C)(C)C)nc2-c2ccc3c(c2)OCO3)n1 [SB-505124]; details: top dose 10 µM; top dose inferred
# Description: as §1
# PI-103 = compound: Oc1cccc(-c2nc(N3CCOCC3)c3oc4ncccc4c3n2)c1 [PI-103]; details: top dose 10.24 µM
# Description: as §1
# WH-4-023 = compound: COc1ccc(N(C(=O)Oc2c(C)cccc2C)c2ccnc(Nc3ccc(N4CCN(C)CC4)cc3)n2)c(OC)c1 [WH-4-023]; details: top dose 5.12 µM; top dose inferred
# Description: as §1
# Tretinoin = compound: CC1=C(/C=C/C(C)=C/C=C/C(C)=C/C(=O)O)C(C)(C)CCC1 [Tretinoin]; details: top dose 10 µM; top dose inferred
# Description: as §1
# [1] = top dose 20 µM, screen: GDSC drug entry 1236, top dose inferred
# [2] = top dose 40 µM, screen: GDSC drug entry 245
Cell Line,AUC (UNC0638; [1]),IC50 (UNC0638; [1]) [µM],AUC (UNC0638; [2]),IC50 (UNC0638; [2]) [µM],AUC (BX-795),IC50 (BX-795) [µM],AUC (GSK690693),IC50 (GSK690693) [µM],AUC (SB-505124),IC50 (SB-505124) [µM],AUC (PI-103),IC50 (PI-103) [µM],AUC (WH-4-023),IC50 (WH-4-023) [µM],AUC (Tretinoin),IC50 (Tretinoin) [µM]
"GI-1 (glioma, adherent)",0.793,8.69,0.675,7.54,0.862,4,0.967,> 10.2,0.957,> 10,0.504,0.656,0.87,4.42,0.98,> 10
"GI-ME-N (neuroblastoma, adherent)",0.777,11.1,0.55,3.59,0.762,2.44,0.949,> 10.2,0.971,> 10,0.47,0.515,0.664,1.08,0.782,5.86
"GOTO (neuroblastoma, adherent)",0.686,4.47,0.709,10.6,0.929,> 5,0.974,> 10.2,0.959,> 10,0.812,6.43,0.9,> 5.12,0.885,> 10
"GR-ST (lymphoblastic leukaemia, suspension)",0.677,4.34,0.574,4.16,0.858,> 5,0.789,5.62,0.785,5.26,0.227,0.0846,0.937,> 5.12,0.937,> 10
"GRANTA-519 (B-cell lymphoma, suspension)",0.973,> 20,0.837,23.1,0.886,4.57,0.951,> 10.2,0.97,> 10,0.334,0.233,0.99,> 5.12,0.989,> 10
"GT3TKB (stomach, adherent)",0.882,16.8,0.905,> 40,0.79,1.94,0.99,> 10.2,0.94,> 10,0.962,> 10.2,0.987,> 5.12,0.935,> 10
"H9 (lymphoid neoplasm, suspension)",0.789,7.16,0.989,> 40,0.884,3.76,0.992,> 10.2,0.988,> 10,0.989,> 10.2,0.97,> 5.12,0.991,> 10
"HA7-RCC (kidney, adherent)",0.979,> 20,0.984,> 40,0.851,4.45,0.983,> 10.2,0.96,> 10,0.977,> 10.2,0.862,> 5.12,0.982,> 10
"HAL-01 (lymphoblastic leukaemia, suspension)",0.829,10.5,0.739,10.9,0.89,4.59,0.904,> 10.2,0.988,> 10,0.056,< 0.04,0.969,> 5.12,0.9,> 10
"HC-1 (hairy cell leukaemia, suspension)",0.779,7.82,0.577,4.02,0.978,> 5,0.912,> 10.2,0.969,> 10,0.316,0.2,0.853,3.77,0.951,> 10
"HCC1187 (breast, suspension)",0.848,13.8,0.9,> 40,0.841,3.22,0.885,10.2,0.956,> 10,0.705,2.34,0.962,> 5.12,0.982,> 10
"HCC2157 (breast, suspension)",0.986,> 20,0.836,28.3,0.895,> 5,0.802,5.33,0.975,> 10,0.25,0.117,0.984,> 5.12,0.872,> 10
"HCC2218 (breast, suspension)",0.805,13.4,0.682,9.25,0.982,> 5,0.819,7.89,0.964,> 10,0.518,0.728,0.974,> 5.12,0.965,> 10
"HD-MY-Z (Hodgkin lymphoma, adherent)",0.802,9.91,0.648,6.42,0.868,4.62,0.983,> 10.2,0.972,> 10,0.388,0.314,0.982,> 5.12,0.931,> 10
"HDLM-2 (Hodgkin lymphoma, suspension)",0.831,12.4,0.796,18.4,0.835,3.21,0.989,> 10.2,0.978,> 10,0.986,> 10.2,0.937,> 5.12,0.84,6.76
"HOP-62 (lung adenocarcinoma, adherent)",0.736,5.88,0.677,7.79,0.854,3.92,0.984,> 10.2,0.958,> 10,0.662,1.8,0.588,0.557,0.987,> 10
"HSC-39 (stomach, suspension)",0.821,9.55,0.99,> 40,0.721,1.19,0.903,10.2,0.968,> 10,0.532,0.77,0.677,0.923,0.986,> 10

Cell Line,AUC (UNC0638; [1]),IC50 (UNC0638; [1]) [µM],AUC (UNC0638; [2]),IC50 (UNC0638; [2]) [µM],AUC (BX-795),IC50 (BX-795) [µM],AUC (GSK690693),IC50 (GSK690693) [µM],AUC (SB-505124),IC50 (SB-505124) [µM],AUC (PI-103),IC50 (PI-103) [µM],AUC (WH-4-023),IC50 (WH-4-023) [µM],AUC (Tretinoin),IC50 (Tretinoin) [µM]
"HT (B-cell lymphoma, suspension)",0.802,8.94,0.69,8.08,0.939,> 5,0.866,7.95,0.976,> 10,0.488,0.597,0.913,> 5.12,0.981,> 10
"HUTU-80 (digestive system, adherent)",0.976,> 20,0.749,11.1,0.568,0.465,0.889,8.16,0.829,4.82,0.257,0.15,0.412,0.192,0.991,> 10
"IA-LM (large cell lung carcinoma, adherent)",0.948,> 20,0.859,> 40,0.881,> 5,0.904,> 10.2,0.901,> 10,0.792,5.3,0.95,> 5.12,0.983,> 10
"IMR-5 (neuroblastoma, adherent)",0.785,7.13,0.667,6.68,0.982,> 5,0.96,> 10.2,0.974,> 10,0.564,0.93,0.916,> 5.12,0.973,> 10
"IST-MEL1 (melanoma, adherent)",0.647,3.48,0.703,10.6,0.889,> 5,0.922,> 10.2,0.973,> 10,0.427,0.389,0.848,4.96,0.95,> 10
"IST-SL1 (small cell lung carcinoma, semi-adherent)",0.615,2.61,0.5,2.49,0.8,2.5,0.958,> 10.2,0.96,> 10,0.388,0.313,0.914,> 5.12,0.986,> 10
"IST-SL2 (small cell lung carcinoma, suspension)",0.755,6.71,0.979,> 40,0.933,> 5,0.861,8.58,0.975,> 10,0.153,0.0552,0.697,1.14,0.927,> 10
"JJN-3 (haematopoietic neoplasm, suspension)",0.851,11.3,0.749,10.9,0.797,1.89,0.916,> 10.2,0.988,> 10,0.332,0.24,0.993,> 5.12,0.799,3.82
"JM1 (B-cell lymphoma, suspension)",0.939,> 20,0.663,6.6,0.821,2.37,0.838,5.56,0.971,> 10,0.507,0.667,0.953,> 5.12,0.77,3.28
"JVM-2 (lymphoid neoplasm, suspension)",0.634,3.19,0.747,15.4,0.881,> 5,0.929,> 10.2,0.951,> 10,0.906,> 10.2,0.9,> 5.12,0.64,1.68
"JVM-3 (lymphoid neoplasm, suspension)",0.752,6.73,0.658,6.92,0.787,2.22,0.987,> 10.2,0.973,> 10,0.937,> 10.2,0.987,> 5.12,0.885,> 10
"JiyoyeP-2003 (Burkitt lymphoma, suspension)",0.83,10.5,0.739,10.9,0.928,> 5,0.991,> 10.2,0.97,> 10,0.739,2.78,0.946,> 5.12,0.913,> 10
"KARPAS-45 (lymphoblastic leukaemia, suspension)",0.632,2.69,0.439,1.76,0.599,0.557,0.507,0.667,0.973,> 10,0.303,0.2,0.884,3.93,0.97,> 10
"KARPAS-231 (B-cell leukaemia, suspension)",0.85,10.2,–,–,0.757,1.37,0.202,0.112,0.993,> 10,0.031,< 0.04,0.586,0.52,0.117,0.0599
"KARPAS-299 (anaplastic large cell lymphoma, suspension)",0.638,2.8,0.678,7.1,0.925,> 5,0.992,> 10.2,0.98,> 10,0.728,2.48,0.976,> 5.12,0.991,> 10
"KARPAS-422 (B-cell lymphoma, suspension)",0.809,10.2,0.652,6.56,0.8,2.38,0.333,0.221,0.981,> 10,0.165,0.0621,0.873,4.8,0.901,> 10

# The IC50 comes from the fitted curve, where viability falls to half of the control; a fit beyond the top or the lowest dose is shown as a bound at that dose. For AUC the same curve is integrated over the 256-fold range of doses and scaled to a fraction: 1 means no effect, lower means more sensitive. For some of these results: An inferred top dose was calculated from the reported fits. For some of these results: An entry number marks a drug with two screens in the source, which often give different values.
